This is an account of results in PubChem BioAssay AID488969 (Vanderbilt High Throughput Screening Facility, 2010).

Over roughly 110,000 compounds, “z-score” has its median near -0.1; the highest 2% begin near 2. The list shows a part of the results. Calls of active or inactive are those of the source.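 How the source made its calls: active means z-score in the third read window above 3 or below -3; inactive means the rest.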

This test concerns the target Metabotropic glutamate receptor 8 (Rattus norvegicus) (UniProt P70579). The test can be described thus: mGluR8 Gi/Go-coupled signaling modulation – cell-based, rat, thallium flux, HTS, primary screen (AID 488969). The following applies: HEK293 rat mGluR8, GIRK (G protein-gated inwardly rectifying potassium channel) thallium flux, FluoZin2; at 10 µM; stronger effect = higher value; submaximal glutamate (EC20) added with thallium.
Chain of UniProt P70579 (P70579 whole entry, looked up): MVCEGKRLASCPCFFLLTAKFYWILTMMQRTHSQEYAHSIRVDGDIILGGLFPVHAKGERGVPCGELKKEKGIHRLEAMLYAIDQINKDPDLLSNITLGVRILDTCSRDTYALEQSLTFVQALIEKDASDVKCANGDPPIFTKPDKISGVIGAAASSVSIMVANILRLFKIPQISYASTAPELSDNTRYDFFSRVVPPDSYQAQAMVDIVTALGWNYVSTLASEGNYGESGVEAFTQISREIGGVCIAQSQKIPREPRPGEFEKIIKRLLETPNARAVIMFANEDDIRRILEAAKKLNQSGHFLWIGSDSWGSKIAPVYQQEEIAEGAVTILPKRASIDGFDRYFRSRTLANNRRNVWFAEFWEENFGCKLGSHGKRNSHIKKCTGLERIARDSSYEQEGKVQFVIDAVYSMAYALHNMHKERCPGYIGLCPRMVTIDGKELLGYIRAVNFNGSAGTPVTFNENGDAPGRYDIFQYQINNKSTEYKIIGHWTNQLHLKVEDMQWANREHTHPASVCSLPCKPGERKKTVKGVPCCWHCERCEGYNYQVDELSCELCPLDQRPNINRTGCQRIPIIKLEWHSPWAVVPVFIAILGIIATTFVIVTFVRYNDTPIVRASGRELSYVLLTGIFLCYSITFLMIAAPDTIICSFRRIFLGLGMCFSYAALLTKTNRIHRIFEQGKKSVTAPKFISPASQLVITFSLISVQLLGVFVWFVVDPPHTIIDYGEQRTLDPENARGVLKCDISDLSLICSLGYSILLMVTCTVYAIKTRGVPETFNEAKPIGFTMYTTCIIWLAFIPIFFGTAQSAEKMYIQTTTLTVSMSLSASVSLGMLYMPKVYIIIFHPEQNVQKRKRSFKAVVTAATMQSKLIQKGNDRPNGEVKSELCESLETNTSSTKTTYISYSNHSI
Take `CC(C)Oc1ccc(CC2CCC(=O)N(C)C2=O)cc1` (stereo unspecified): the z-score was -0.385.

`Cc1nc(Nc2ccc(Cl)cc2Cl)sc1C(=O)Nc1ccccc1`: the z-score was -0.181.

Take `COc1cc2c3c(c1OC)C1(C=CC(=NNC(N)=O)C=C1)CC3N(C(C)=O)CC2` (stereo unspecified): the z-score is -0.321.

In the case of `COc1ccc(CN2CCN(S(=O)(=O)c3ccccc3)CC2)cc1Br`, the z-score was -0.44.

`COC(=O)c1sccc1NC(=O)c1ccc(C)o1`: the z-score is -0.261.

Consider `CCOC(=O)N1CCC(NC(=O)C(NC(=O)C2CCC(C)CC2)C(C)CC)CC1` (stereo unspecified), for which the z-score is 0.0225.

`O=C(NCCO)/C(=C\c1ccc(Br)cc1)NC(=O)c1cccs1`: the z-score came to 0.19.

For the compound `CCOC(=O)c1cc2c(C)n(-c3ccc(OCC)cc3)c(C)c2cc(C(=O)OCC)c1=O`, the z-score is -0.0746.

In the case of `COc1ccc(C2(CNC(=O)/C=C\c3ccco3)CCCC2)cc1OC`, the z-score was -0.163.

Consider `Cn1c(=O)[nH]c(=O)c2c1nc(N1CCOCC1)n2CCSc1nc2ccccc2[nH]1`, for which the z-score was -0.0622.

With `CS(=O)(=O)N(CC(=O)NCC1CCCO1)c1ccc(F)c(Cl)c1` (stereo unspecified), the z-score amounted to 0.0103.

As to `Cc1cc(C(=O)Nc2ccccc2N2CCOCC2)c2ccccc2n1`, the z-score is -0.137.

`N#CC1(Cc2ccc([N+](=O)[O-])cc2)c2ccccc2C=CN1C(=O)c1ccccc1` (stereo unspecified) registered a z-score of 2.08.

With `Cc1cccc(NC(=O)c2ccccc2OCC(=O)c2ccc(F)cc2)c1`, the z-score is 0.0508.

With `O=C(CSc1nnc(-c2cccs2)n1Cc1ccccc1)N1CCc2ccccc2C1`, the z-score was -1.37.

Take `COC(=O)c1ccc(Oc2c(Cl)cccc2[N+](=O)[O-])cc1`: the z-score is -0.0259.

With `CC(Oc1ccc(F)cc1)C(=O)/C=C\N(C)C` (stereo unspecified), the z-score came out at 0.000912.

Turning to `O=c1c2ccccc2nc2sc3ccccc3n12`, the z-score amounted to 0.369.

In turn, `COC(CNC(=O)c1cc(C(=O)c2c(-c3c(Cl)cccc3Cl)noc2C)c[nH]1)OC` came in with a z-score of 0.0888.

As for `O=C(Nc1ccc2nc(-c3cccnc3)[nH]c2c1)C1CCCCC1`, the z-score is -1.46.

With `COc1ccc(NC(C)c2cc(Cl)ccc2O)cc1` (stereo unspecified), the z-score is -0.607.

For `COC(=O)CSC1=C(C#N)C(c2ccc(F)cc2)CC(=O)N1` (stereo unspecified), the z-score was -0.049.

Regarding `COc1ccccc1N1CCN(C(=O)c2ccc(CN3CCc4ccccc4C3)cc2)CC1`, the z-score was -0.0526.

For the compound `Cc1ccccc1NC(=O)CNc1ccc(Cl)c(C(F)(F)F)c1`, the z-score was -0.365.

Compound `CNC(=O)C1C(=S)NC(N)=C(C#N)C1c1ccccc1` (stereo unspecified) came in with a z-score of 0.223.

Compound `COc1cc(S(=O)(=O)N2CCOCC2)c(OC)c(S(=O)(=O)N2CCOCC2)c1` showed a z-score of 0.0665.

Regarding `COc1ccc2nc(-c3cccc(N)c3)[nH]c2c1`, the z-score is -0.108.

In turn, `COc1ccc(N2CCN(CC(=O)N3CCC(C)CC3)CC2)cc1` registered a z-score of 0.116.

For the compound `CC(=O)c1coc2ccc(OCC(=O)O)cc12`, the z-score is -0.987.

`O=C(Cc1cccs1)Nc1nnc(COc2ccccc2)s1` had a z-score of 0.29.

`CCOc1ccc(S(=O)(=O)NCc2csc(C)n2)cc1`: the z-score stood at 0.494.

`CCCN1C(=O)/C(=C/c2ccncc2)SC1=S` had a z-score of 0.165.

For `CCC(=O)Nc1cc(C(=O)OCC(=O)c2ccccc2Cl)ccc1C`, the z-score is -0.288.

With `COc1ccc(S(=O)(=O)N2CCC(C(=O)NCC(c3cccs3)N(C)C)CC2)cc1` (stereo unspecified), the z-score is 0.122.

With `C/C(=C\c1ccccc1)C(=O)n1nnc2ccccc21`, the z-score was -0.278.

Take `OC(Cn1cncn1)c1ccc(Cl)cc1Cl` (stereo unspecified): the z-score was -0.324.

In the case of `CCOc1ccccc1NC(=O)CCc1ccc(C)o1`, the z-score was -0.332.

Take `N=C1/C(=C\c2ccc(-c3cc(Cl)cc(Cl)c3)o2)C(=O)N=C2SC=C(c3ccccc3)N12`: the z-score worked out at 0.85.

Regarding `CCCc1c(C)[nH]c2ccccc2c1=O`, the z-score was -0.356.

Take `CN1CCN(NC(=O)COc2cccc(C(F)(F)F)c2)CC1`: the z-score is -0.103.

With `COc1ccc(-n2nc3c(c2NC(=O)c2cc(Br)ccc2Cl)CS(=O)C3)cc1` (stereo unspecified), the z-score was -0.251.

`Cn1ncc2c(NCc3ccccc3)ncnc21`: the z-score was -0.129.

On to `CCCC(=O)Nc1nc(C)c(-c2csc(Nc3ccc(Cl)cc3)n2)s1`, for which the z-score worked out at 0.242.

In turn, `Cc1nc2ccccn2c1C(=O)N/N=C/c1ccccc1[N+](=O)[O-]` displayed a z-score of 0.331.

Consider `CC1C/C(=N\NC(=S)NCc2ccccc2)CC(C)(C)C1` (stereo unspecified), for which the z-score was 1.66.

For the compound `COc1ccc(C)cc1-n1nnnc1SCC1CCCCO1` (stereo unspecified), the z-score is -0.0123.

The compound `CCOC(=O)C(C)Sc1nnc(Cc2cc(=O)[nH]c(=O)[nH]2)n1-c1ccc(OCC)cc1` (stereo unspecified) gave a z-score of 0.465.

As to `O=C(NCCCn1ccnc1)Nc1ccc(Cl)c(Cl)c1`, the z-score is active: 3.92.

As for `CC(C)(C)NC(=O)C(c1ccco1)N(C(=O)Cn1nnc(-c2ccc(F)cc2)n1)c1ccccc1` (stereo unspecified), the z-score came to 0.0125.

In turn, `CCN(CC)CCOC(=O)c1c(C)oc2ccc(O)cc12` registered a z-score of 1.07.

Consider `COc1ccccc1OCC(=O)NCCC1=CCCCC1`, for which the z-score was -0.178.

On to `COc1ccc(CNC(=O)Nc2cccs2)cc1OC`, for which the z-score was determined as 1.39.

`O=C(Nc1ccc(Br)cc1)C1CCN(C(=O)c2ccc(F)cc2)CC1`: the z-score is -0.239.

With `C=CCNc1nc(-c2cccc(OC)c2O)nc2ccccc12`, the z-score is -0.327.

As for `CSc1nc(NCc2ccco2)c2sc3nc(C(C)C)c4c(c3c2n1)CC(C)(C)OC4`, the z-score is -0.193.

In the case of `CC(=O)Nc1ccc(S(=O)(=O)Nc2nc3ccccc3nc2N2CCc3ccccc3C2)cc1`, the z-score is -0.323.

`Cc1onc(-c2ccccc2Cl)c1C(=O)Nc1ccc(N2CCOCC2)cc1`: the z-score was -0.313.

`O=C(CN1CCN(Cc2ccccc2)CC1)N/N=C/C=C/c1ccccc1[N+](=O)[O-]`: the z-score was 0.438.

The compound `CCC(=O)NC(=S)Nc1ccc(S(=O)(=O)NC(C)=O)cc1` returned a z-score of 0.551.

In the case of `Cn1c(=O)n(C)c2cc(/C=C3/NC(=O)N(Cc4ccccc4)C3=O)ccc21`, the z-score was -0.157.

For `COc1ccc(Cn2c(CCC(=O)Nc3ccc(CC#N)cc3)nc3cccnc32)cc1`, the z-score stood at 0.247.

`CCNc1nc(Cl)nc(N(NC(C)=O)C(C)CC)n1` (stereo unspecified): the z-score is -0.0442.

As to `CCOC(=O)c1c(C)[nH]c(=S)c(C#N)c1-c1ccc(OC)cc1`, the z-score came out at 0.501.

Take `O=C(c1cccnc1)N1CCN(Cc2cccc(F)c2)CC1`: the z-score was -0.0119.

For `CCOc1ccc(N2C(=O)C3C4C=CC(CC4)C3C2=O)c([N+](=O)[O-])c1` (stereo unspecified), the z-score was 0.0139.

Turning to `CCSc1nc2c(c(-c3ccc(C)o3)c1C#N)CCCC2`, the z-score is -0.313.

`O=C(Oc1ccc2c(=O)c(Oc3ccc4ccccc4c3)coc2c1)c1cncc(Br)c1`: the z-score is -1.44.

`COC(=O)C1CCN(C(=O)c2sc3nc(-c4ccc(F)cc4)cn3c2C)CC1`: the z-score was -1.91.

The compound `Cn1nc(C(=O)NCCN2CCOCC2)c2ccccc2c1=O` returned a z-score of 0.0382.

On to `COc1ccc(N(Cc2cc3ccc(C)cc3[nH]c2=O)C(=O)c2ccco2)cc1`, for which the z-score was -0.389.

As to `N#C/C(=C/c1cccc(C(F)(F)F)c1)c1nc(CCN2C(=O)c3ccccc3C2=O)cs1`, the z-score was -0.0278.

Turning to `c1nnnn1C12CC3CC(CC(C3)C1)C2`, the z-score stood at 0.487.

For the compound `COc1cccc(Nc2nc(C)cc(C)c2C#N)c1`, the z-score is -0.0986.

In turn, `O=C(NC(=S)N1CCCCC1)c1cccnc1` had a z-score of 0.39.

`Cc1cccc(C(=O)N2CCCCCC2)c1` gave a z-score of 0.0897.

`COc1ccc(C2CC(=O)c3c(ccc4ccccc34)N2)cc1OC` (stereo unspecified): the z-score was determined as 0.387.

On to `O=C1OC(Cc2ccncc2)C(O)=C1C1=NCCCN1` (stereo unspecified), for which the z-score was -0.135.

As for `CC(=O)C1=C(C)NC(SCC(=O)Nc2nccs2)=C(C#N)C1c1ccccc1Cl` (stereo unspecified), the z-score is -1.18.

Turning to `Cc1ccccc1C(=O)N1CCC(C(=O)Nc2ccc(S(=O)(=O)N3CCCC3)cc2)CC1`, the z-score is -1.06.

With `Cc1nc2ccccn2c1C(=O)N=Nc1c(O)[nH]c2ccccc12`, the z-score was -0.339.

Compound `Cc1ccc(-n2c(-c3cccs3)nc3nc4ccccc4nc32)cc1` returned a z-score of 0.827.

`CCOC(=O)C1CCCN(S(=O)(=O)c2ccc(OC)c3ccccc23)C1` (stereo unspecified) came in with a z-score of 1.42.

Regarding `CC1=C(C(=O)OC(C)C)C(c2cccs2)NC(=S)N1` (stereo unspecified), the z-score is -0.124.

For `COc1ccc(C2CC(=O)C=C(NC3CCCC3)C2)cc1` (stereo unspecified), the z-score turned out to be 0.141.

With `CC(=O)NC(=O)c1ccc(-c2ccc(Cl)cc2)o1`, the z-score was -0.365.

Turning to `COCC(=O)Nc1sc2c(c1C(=O)OC)CCC(C)C2` (stereo unspecified), the z-score is -0.444.

Take `COc1ccc(Cl)c(Cn2c(NCc3ccccn3)nc3c2c(=O)n(C)c(=O)n3C)c1`: the z-score is -2.16.

The compound `Cc1cccc(-n2ncc3c(N4CCC(C)CC4)ncnc32)c1` came in with a z-score of 0.0351.

As to `Cc1oc(-c2ccc(Cl)cc2)[n+]([O-])c1C`, the z-score is -0.0329.

As for `C1CCN(CCCNC2C3CC4CC(C3)CC2C4)C1` (stereo unspecified), the z-score is 0.869.

In turn, `COc1ccc(-c2nn(C)c(=O)c3ccccc23)cc1NS(C)(=O)=O` showed a z-score of 0.596.

In the case of `CC(=O)N=c1ncn(CC(COC(C)=O)OC(C)=O)c2nc[nH]c12` (stereo unspecified), the z-score came out at 0.992.

Compound `Cc1ccc2c3c1C1(C(=O)N3C(C)(C)CC2C)C(C#N)=C(N)Oc2cc(O)ccc21` (stereo unspecified) came in with a z-score of 0.214.

In the case of `Cc1ccc(S(=O)(=O)N2CCC(C(=O)N3CCC[C@H]3C(=O)NC3CCS(=O)(=O)C3)CC2)cc1` (stereo partly specified), the z-score is -0.182.

`O=C(Cn1ncc2c3ccccc3n(Cc3ccccc3)c2c1=O)N1CCN(c2ncccn2)CC1`: the z-score was -0.147.

`Cc1cccc(C)c1NC(=O)C(=O)NCc1ccccn1` displayed a z-score of 0.282.

As for `Cc1ccc(C)c(C(=O)Nc2c(C(N)=O)oc3ccccc23)c1`, the z-score was -0.172.

For the compound `CCOc1ccc(CC(=O)Nc2sc(Cc3ccccc3)c(C)c2C(N)=O)cc1OCC`, the z-score was -0.176.

`COc1ccc(Cl)cc1C(=O)NNC(=S)NC(=O)c1cc(-c2ccccc2)nc2ccccc12` came in with a z-score of 1.06.

`Cc1cc(C)c(C(N)=O)c(NC(=O)Nc2ccccc2)n1`: the z-score was -0.365.

The compound `COc1cc(NC(=O)COC(=O)CSc2ccc3ccccc3c2)c(C)cc1[N+](=O)[O-]` had a z-score of 0.0632.

The compound `CC(=O)C(Sc1nn(C)c(=S)s1)C(=O)Nc1ccccc1` (stereo unspecified) showed a z-score of 0.091.

`O=C(CSc1nnc(CCc2ccccc2)n1-c1ccc(Cl)cc1)c1ccccc1`: the z-score is -0.506.

For `COc1cc(CCC(=O)Nc2ccc(Br)c(C(F)(F)F)c2)cc(OC)c1OC`, the z-score came out at 0.067.

`Cc1noc(C)c1S(=O)(=O)N1CCC(C(=O)NC2CCCc3ccccc32)CC1` (stereo unspecified): the z-score was -0.315.

With `COc1cc(SC)ccc1C(=O)Nc1ccccc1C#N`, the z-score was -0.0123.

For the compound `O=C(CSc1n[nH]c(-c2ccc(Cl)cc2Cl)n1)Nc1ccccn1`, the z-score is -0.406.

For `Oc1ccc(C2N=C(c3ccccc3)NC(c3ccccc3)=N2)cc1`, the z-score is -0.128.

For the compound `c1ccc(Nc2ncnc3sc4c(c23)CCC4)cc1`, the z-score is -0.551.

On to `CC1CC(C)CN(S(=O)(=O)c2ccc3c(c2)oc(=O)n3CC(=O)N2CCOCC2)C1` (stereo unspecified), for which the z-score was -0.278.

As to `CC(=O)c1cc(Cl)ccc1OC(=O)c1ccco1`, the z-score turned out to be 0.12.
